Results: the supplement of paper PMC11383711
Some of the results follow. Binding of human antibodies (heavy:light variable regions, tested as scFv in one mRNA-display pool) to influenza hemagglutinin, with or without the stem antibody CR9114 bound first. Score = (mean enrichment − median) / interquartile range of that screen; higher = more enriched, 0 = typical non-binder. Active = above the paper's cut-off per screen: stems 28; unblocked H1 Solomon Islands 5, H1 Michigan 3, H3 5, H5 19, H7 2.85, both B 5; blocked 9, 7, H5 10, H7 10, B Phuket 10, B Lee 11.5. Scores are scaled within each screen and are no affinities; replicates correlate at about 0.6 to 0.9, and antibodies rare in the pool are noisier.

Key:
Assay in all cases: mRNA display binding score; higher = more enriched on the antigen
[1] = target: Influenza A H1N1 A/Michigan/45/2015 hemagglutinin ectodomain
Protocol: (§1)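 A pool of natively paired antibodies, displayed as scFv on mRNA, was selected once on antigen-coated beads and sequenced before and after; two replicates.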

[2] = target: Influenza A H1N1 A/Solomon Islands/3/2006 hemagglutinin ectodomain
Protocol: as §1

[3] = target: Influenza A H3N2 A/Singapore/INFIMH-16-0019/2016 hemagglutinin ectodomain; details: antigen blocked with: nothing
Protocol: as §1

[4] = target: Influenza A H5N1 A/Qinghai/1A/2005 hemagglutinin ectodomain
Protocol: as §1

[5] = target: Influenza A H7N9 A/Shanghai/2/2013 hemagglutinin ectodomain
Protocol: as §1

[6] = target: Influenza B/Lee/1940 hemagglutinin ectodomain
Protocol: as §1

[7] = target: Influenza B/Phuket/3073/2013 hemagglutinin ectodomain
Protocol: as §1

[8] = antigen blocked with: 2 µM CR9114 IgG

Row | Binder | mRNA display binding score [1, 8] | mRNA display binding score ([1]; antigen blocked with: nothing) | mRNA display binding score [2, 8] | mRNA display binding score ([2]; antigen blocked with: nothing) | mRNA display binding score [3] | mRNA display binding score [4, 8] | mRNA display binding score ([4]; antigen blocked with: nothing) | mRNA display binding score [5, 8] | mRNA display binding score ([5]; antigen blocked with: nothing) | mRNA display binding score [6, 8] | mRNA display binding score ([6]; antigen blocked with: nothing) | mRNA display binding score [7, 8] | mRNA display binding score ([7]; antigen blocked with: nothing)
1 | AG13-3E04 (protein) chain 1: VQLLESGGGLVQPGGSLRLSCTASGFTFNNYAMNWVRQAPGKGLEWVSSLSGGGRNIYYADSVKGRFTISRDNFKNTVYLQMNSLRAEDTAIYYCAKPAPMMVVVKNWFDTWGQGTLVTVSS chain 2: EIVMTQSPATLSVSPGERATLSCRASQSVSANLAWYQQKPGQTPRLLIYDASTRATGIPARFSGSGSGTHFTLTISSLQSEDFAIYYCQQYKDWPPWTFGQGTKVEIK | inactive: 0.0616 | inactive: 0.596 | inactive: -0.214 | inactive: 0.415 | inactive: 0.354 | inactive: -0.139 | inactive: -0.06 | inactive: 0.00618 | inactive: 1.07 | inactive: 0.508 | inactive: -0.165 | inactive: -0.0991 | inactive: 0.0989
2 | S5V2-52-Ig (protein) chain 1: SGPGLVKPSETLSLTCTVSGDSVNNKIYYWSWIRQTAGRGLEWIGSLSASGSSNYNPSLKSRVTILLHTSENQFSLKLTSVTAADTAVFYCARGGIEDLFLGTSNQRIWYFDVWGRGTQVTVSS chain 2: SASVGDRVTITCRASQSIGDSLNWYQQKSGRAPNLLMYAASNLQSGVPSRFSGSGSGTDFTLTISSLQPEDFAIYYCQHQVSFGRGTKLEI | inactive: -0.409 | inactive: -0.369 | inactive: 0.332 | inactive: 0.133 | inactive: -0.218 | inactive: -0.0964 | inactive: -0.153 | inactive: 2.31 | inactive: -0.344 | inactive: 1.05 | inactive: 0.171 | inactive: 0.374 | inactive: -0.335
3 | W85-2C10 (protein) chain 1: EVQLVESGGGVVQPGRSLRLSCAASGSTFSDRAMHWVRQAPGRGMEWIGFILFHGTNNYHADSVKGRFTISRDNSKNTLYLQMNSLRTEDTAMYYCARDRGAAVVDLTAEAFDLWGQGTMVTVSS chain 2: DIQMTQSPSSLSASVGDRVTITCRASQGIRNWLAWYQQKPGKAPRSLIYAASTLQSGVPSRFIGSGSGTDFTLTIRGLQPEDFATYFCQQYDSYPLTFGGGTKVEI | inactive: 1.46 | inactive: 0.974 | inactive: 1.36 | inactive: 0.123 | inactive: 1.3 | inactive: 0.249 | inactive: 1.35 | inactive: 0.638 | inactive: 0.943 | active: 48.1 | active: 172 | inactive: 0.929 | inactive: -0.027
4 | C2-3-G03 (protein) chain 1: VQLVESGGRLVQPGGSLRLSCAASGFIFSNYWMHWVRQAPGKGLVWVSRINSDGSSIVYADSVKGRFTVSRDNAKNTLYLQMNSLRAEDTAVYYCAREPYHPPQFDYWGQGTLVTVSS chain 2: DIQMTQSPSSLSASVGDRVTITCRASQGIDTYLNWYRQQPGRPPKLLIYSAANLPSGVPSRFSGSGSGADFTLTISGLQPEDFATFYCQQSYRSPPTFGGGTKVEIK | inactive: 1.51 | inactive: -0.511 | active: 172 | active: 118 | inactive: 0.0343 | inactive: 1.14 | inactive: 0.0218 | inactive: 1.02 | inactive: -0.582 | inactive: -0.031 | inactive: 0.193 | inactive: 2.79 | inactive: 0.913
5 | W85-1H07 (protein) chain 1: EVQLVESGGGLVKPGGSLRLSCAASGFHFSGYSMNWVRQAPGKGLEWVASISGSVSDIHYADSVKGRFTISRDNARNSLYLQMTSLRAEDTALYYCVRDSYNWNDREFDPWGQGTLVTVSS chain 2: DIQMTQSPSSLSASVGDRVTFSCRASQSISIYLNWYQQKPGKAPKLLIYAASSLQTGVPSRFSGSGSGTDFTLSISSLQLEDFATYYCQQSYTTPPTFGQGTKVEVK | inactive: 0.357 | inactive: 0.335 | inactive: 1.38 | inactive: 0.107 | inactive: 0.74 | inactive: -0.159 | inactive: 0.426 | inactive: 0.518 | inactive: 0.868 | inactive: 7.86 | active: 46.3 | inactive: 0.221 | inactive: -0.0266
6 | 100F4 (protein) chain 1: QLQLQESGLGLVKPSETLSLTCTVSGDSVSSGSYYWSWLRQPPGKGLEWIGNMHGSGHTNYNPSLKSRVTITPDTSKNHFSLRLSSVTAADTAVYYCARALLTTVTTFEYWGQGTLVTVSS chain 2: QSVLTQPPSVSGAPGQRVTISCTGGSSNIGAGYSVHWYQQLPGTAPKLLIYGSNSRPSGVPDRFSGSKSGTSASLAITGLRPEDEADYYCQSYDSSLSGSQVFGAGTRVTVL | inactive: 0.385 | inactive: -0.331 | inactive: -0.283 | inactive: -0.554 | inactive: -0.301 | active: 16.9 | active: 48 | inactive: 0.197 | inactive: 0.18 | inactive: -0.29 | inactive: -0.147 | inactive: -0.494 | inactive: 0.0364
7 | R95-2A05 (protein) chain 1: QVHLEQSGAEVKKPGASVKVSCKVSGHTLTELSMHWVRQAPGKGLEWVGGFDPEVGKPVYAQNFQGRITMTEDTIWDTAYMELSSLKSEDTAVYYCATGTRAGLPTPLYYYGMDFWGQGTPVTVSS chain 2: EIVMTQSPATLSVSPGERATLSCRASQGVSSDVVWYQQKPGQAPRPLIYGASTRATGVPGRFTASQSGTEFTLTISSLQSEDFAVYYCQQYNKWPLTFGGGTRVEL | inactive: -0.31 | inactive: -0.694 | inactive: -0.0619 | inactive: -0.532 | inactive: -0.552 | inactive: -0.0177 | inactive: -0.44 | inactive: 0.0314 | inactive: -0.688 | inactive: 0.177 | inactive: -0.392 | inactive: -0.337 | inactive: -0.422
8 | antibody 3E02 (protein) chain 1: VQLVESGGGVVQPGRSLRLSCATSGFIFSRYAIHWVRQAPGKGLEWVAVISNDGTKEECADSVKGRFTISRDNSKSTLYLQMNSLRAEDTAVYYCARDATQYGYETNWFFDSWGRGLLVTVSS chain 2: SYELTQPASVSVSPGQTANITCSGDKLGDKYTSWYQQKPGQAPVLVIYQDTKRPSGIPERFFGSSSGDAATLTISGTQAMDEADYYCQAWVWDSRVVFGGGTKLTVL | inactive: 0.231 | inactive: 0.0448 | inactive: 0.0907 | inactive: 0.582 | inactive: -0.151 | inactive: 0.00908 | inactive: 0.0151 | inactive: -0.0101 | inactive: 0.409 | inactive: 10.2 | active: 27.5 | inactive: 0.0213 | inactive: -0.0738
9 | 019-10-4A03 (protein) chain 1: EVQLVESGGGVVKPGGSLRLSCAASGIDFFNAWMSWVRQAPGKGLQWVGHIRSLTDGGTTDYAAPGKGRFTISRDDSQNTLYLQMESLRTDDTAVYYCTTDYGDYLNGGRWGQGTLVTVSS chain 2: DIVMTQSPLSLSVTPGEPASISCRSSQSLLRNNEFNYLDWYLQKPGQSPQVLIYFGSHRASGVPDRFSGSGSGTSFTLRINRVEAEDVGVYYCMQALQTPYTFGQGTKVEIK | inactive: 1.14 | inactive: 1 | inactive: 1.23 | inactive: 0.701 | inactive: 1.06 | inactive: 0.573 | inactive: 1.62 | inactive: 0.382 | inactive: 0.256 | active: 69.4 | active: 187 | active: 37 | active: 20.7
10 | R95-1E05 (protein) chain 1: QVQLVQSGPEVKKPGSSVKVSCKASADTFSSYGFSWVRQAPGQGFEWMGGIIPAFGTTNYPQRFQDRVTITADESTRTVYMELSSLRSEDTAMFYCARDSPPWGDVNNNDAFDIWGQGTMVTVSS chain 2: DVVMTQSPLSLPVTLGQPASISCRSSQSLVYTDGNTYLNWFQQRPGQSPRRLIYKVSNRDSGVPDRFSGSGSGTDFTLKISRVEAEDVGVYYCMQATDWPSITFGQGTRLEIK | inactive: -0.495 | inactive: -0.743 | inactive: -0.198 | inactive: -0.578 | inactive: -0.101 | inactive: 1.27 | inactive: 1.92 | inactive: 0.615 | inactive: -0.739 | inactive: 2.05 | active: 38.9 | inactive: 5.36 | active: 19.9
11 | R95-1A04 (protein) chain 1: LVQLQESGPGLVKPSETLSLTCTVSGYSINTGYYWGWIRQPPGKGLQWIGSIYYSGRTHYNPSLRSRVTIFLDTSKNQFSLKLRSVTAADTAVYYCARWWSSSGGSNWFDPWGQGTLVTVSS chain 2: SYELTQPPSVSVAPGQTARITCGGDNIESKSVHWYQQKPGQAPALVVYDDSDRPSGIPERYSGSNSGNTATLTISRVEAGDEADYYCQVWDGSGDQALVLFGGGTKLTVL | inactive: -0.276 | inactive: 0.17 | inactive: 0.597 | inactive: 0.241 | inactive: -0.394 | inactive: -0.159 | inactive: 4.55 | inactive: -1.11 | inactive: 0.213 | inactive: 1.21 | active: 41.4 | inactive: 2 | active: 17.4
12 | antibody 3D04 (protein) chain 1: EVQLVESGGGVVQPGRSLRLSCAPSGFTFDIYAMQWVRQAPGKGLEWVAFVSYDGSIKNYADSVKGRFTISRDKYLEMNSLRPEDTAVYFCARGRVAYCTTDCYHAFDIWGQGTMVTVSS chain 2: SYELTQPHSVSVAPGQTATITCGGDYIERKSVHWYQQKPGQAPVLVVYDDSDRPSGIPERLSGSNSGNTATLTISRVEGGDEADYYCQVWDSSCDCWVFGGGTKVTVL | inactive: 0.678 | inactive: -0.133 | inactive: 0.511 | inactive: -0.121 | inactive: -0.275 | inactive: 3.57 | inactive: 14.4 | inactive: 0.272 | inactive: 0.0994 | inactive: 1.9 | active: 55.5 | active: 19.5 | active: 26.6
13 | R95-1D06 (protein) chain 1: EVQLVESGGGLVKPGGSLRLSCAASGFTFRSYTMNWVRQAPGKGLEWVSSISTTLSFIYYADSVKGRFTISRDNAKNSLYLQMNSLRAEDTAVYYCARDLNSYGTVDYWGQGTLVTVSS chain 2: SYELTQPPSVSVAPGQTARIPCGGNNIGSRPVNWYQQKPGQAPVLVVYDDNDRPSGIPERFSGSNSGNTATLTISRVEAADEADFYCQVWDSSRDQSVLGGGTKLTVL | inactive: -0.145 | inactive: -0.0835 | inactive: -0.189 | inactive: -0.125 | inactive: 0.0455 | inactive: -0.505 | inactive: -0.0214 | inactive: -0.783 | inactive: -0.0111 | inactive: 0.416 | inactive: 3.63 | inactive: 1.51 | active: 9.72
